Data taken from a collection of fitness landscapes (doi:10.1016/j.celrep.2020.107928).
Over roughly 81,000 sequences, “one-hybrid fitness for binding NBS DNA” has its median near -0.1; the highest 2% begin near 0.36. The list shows a part of the results.

B1: Caulobacter ParB omega fusion; a variant is named by its letters at X, in order, B8GW30 (parent)
chain: MESVVVGEPGMSEGRRGLGRGLSALLGEVDAAPAQAPGEQLGGSREAPIEILQRNPDQPRRTFREEDLEDLSNSIREKGVLQPILVRPSPDTAGEYQIVAGERAWRAAQRAGLKTVPIMVRELDDLAVLEIGIIENVQRADLNVLEEALSYKVLMEKFERTQENIAQTIGKSXSHVANXMRLLXLPDEVQSYLVSGELTAXHARAIAAAADPVALAKQIIEGGLSVRETEALARKAPNLSAGKSKGGRPPRVKDTDTQALESDLSSVLGLDVSIDHRGSTGTLTITYATLEQLDDLCNRLTRGI

Variants of: B1
Assay: one-hybrid fitness for binding NBS DNA (the Noc-binding site; scaled: cognate 1, non-cognate 0); higher = stronger binding
Settings: with NBS DNA site
Procedure, shortened: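 Fitness here means the log change in variant-to-wild-type read ratio between plasmids sequenced before and after selection. That scale was set so cognate equals 1 and non-cognate equals 0. The selection was a bacterial one-hybrid screen of Caulobacter ParB libraries, four specificity codons randomised, in E. coli USO carrying a HIS3 reporter with the site 19 bp from the promoter, grown 48 hours at 37°C on M9-minus-histidine with 0.1 mM IPTG and 5 mM 3-AT.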

Variant | one-hybrid fitness for binding NBS DNA
RYTG | ≤ 0.2
IYLA | ≤ 0.2
HACG | ≤ 0.2
DWYS | ≤ 0.2
HIAK | ≤ 0.2
QHPK | ≤ 0.2
PKWR | ≤ 0.2
HKYV | ≤ 0.2
YLGG | ≤ 0.2
SQNT | ≤ 0.2
CLVS | ≤ 0.2
YPYP | ≤ 0.2
QYPR | 0.27
ANQS | ≤ 0.2
AYDY | ≤ 0.2
DPSA | ≤ 0.2
QKRC | 0.425
KCRA | ≤ 0.2
IMVR | ≤ 0.2
TCNA | ≤ 0.2
ESLG | ≤ 0.2
THPV | ≤ 0.2
HSLM | ≤ 0.2
RHRL | ≤ 0.2

Variant | one-hybrid fitness for binding NBS DNA
SFYS | ≤ 0.2
HYDY | ≤ 0.2
GKSG | ≤ 0.2
WYVT | ≤ 0.2
KYFG | ≤ 0.2
HCPV | ≤ 0.2
DWIC | ≤ 0.2
AWIR | ≤ 0.2
EMET | ≤ 0.2
YVEG | ≤ 0.2
MTKP | ≤ 0.2
LTRT | ≤ 0.2
SVKW | ≤ 0.2
ASKD | ≤ 0.2
RTMS | 0.452
LYHH | ≤ 0.2
VSHG | ≤ 0.2
DNLR | ≤ 0.2
YYWY | ≤ 0.2
ESKI | ≤ 0.2
SAHT | ≤ 0.2
VWVC | ≤ 0.2
MPKT | ≤ 0.2
TECL | ≤ 0.2

Variant | one-hybrid fitness for binding NBS DNA
FQMG | ≤ 0.2
WIKC | ≤ 0.2
RGLF | ≤ 0.2
SKPA | ≤ 0.2
CCPY | ≤ 0.2
HVQQ | ≤ 0.2
SLNC | ≤ 0.2
GGIG | ≤ 0.2
RQRV | 0.203
NTLS | ≤ 0.2
QACG | ≤ 0.2
NNNF | ≤ 0.2
PWTR | ≤ 0.2
TISR | ≤ 0.2
DIFG | ≤ 0.2
AHQP | ≤ 0.2
RYMN | ≤ 0.2
RVCV | ≤ 0.2
LWQY | ≤ 0.2
RPAP | ≤ 0.2
ADND | ≤ 0.2
LSKV | ≤ 0.2
GPPH | ≤ 0.2
LQHI | ≤ 0.2

Variant | one-hybrid fitness for binding NBS DNA
DGST | ≤ 0.2
KGQR | ≤ 0.2
PDCA | ≤ 0.2
QLID | ≤ 0.2
YPYC | ≤ 0.2
SAEN | ≤ 0.2
VVYD | ≤ 0.2
YAGY | ≤ 0.2
HDRG | ≤ 0.2
QAAY | ≤ 0.2
THEG | ≤ 0.2
PRES | ≤ 0.2
PPHS | ≤ 0.2
FPVY | ≤ 0.2
VASG | ≤ 0.2
RGPP | ≤ 0.2
TIAG | ≤ 0.2
RMLN | ≤ 0.2
VTQV | ≤ 0.2
KRRN | 0.217
YYDR | ≤ 0.2
AGCC | ≤ 0.2
CVPM | ≤ 0.2
PFSI | ≤ 0.2

Variant | one-hybrid fitness for binding NBS DNA
FDVC | ≤ 0.2
AGWS | ≤ 0.2
RMYI | ≤ 0.2
KQSA | ≤ 0.2
PSRK | ≤ 0.2
PRLK | ≤ 0.2
IGAV | ≤ 0.2
VEYC | ≤ 0.2
MSSM | ≤ 0.2
WPPA | ≤ 0.2
GTHF | ≤ 0.2
PRGA | ≤ 0.2
QPVT | 0.269
STMC | ≤ 0.2
CWGR | ≤ 0.2
TRLY | ≤ 0.2
KVVG | ≤ 0.2
HNPC | ≤ 0.2
VMDS | ≤ 0.2
FDSA | ≤ 0.2
NENR | ≤ 0.2
SMTV | ≤ 0.2
SLAP | ≤ 0.2
YKHA | ≤ 0.2

Variant | one-hybrid fitness for binding NBS DNA
SYRR | 0.337
HLDS | ≤ 0.2
TIIM | ≤ 0.2
RFHP | ≤ 0.2
KADT | ≤ 0.2
ASNS | ≤ 0.2
RAAN | ≤ 0.2
TQDF | ≤ 0.2
EGMP | ≤ 0.2
ITVV | ≤ 0.2
GIFL | ≤ 0.2
VTNC | ≤ 0.2
CHPF | ≤ 0.2
PQLD | ≤ 0.2
RHIF | ≤ 0.2
PLVY | ≤ 0.2
VKNR | ≤ 0.2
YTPG | ≤ 0.2
YVGR | ≤ 0.2
PYLF | ≤ 0.2
SYSY | ≤ 0.2
HTVQ | ≤ 0.2
NHTY | ≤ 0.2
AISA | ≤ 0.2

Variant | one-hybrid fitness for binding NBS DNA
AGEK | ≤ 0.2
IELV | ≤ 0.2
SMVM | ≤ 0.2
NFFR | ≤ 0.2
QRQY | 0.521
SQES | ≤ 0.2
RVTK | ≤ 0.2
PANW | ≤ 0.2
YPCE | ≤ 0.2
DAHF | ≤ 0.2
AENW | ≤ 0.2
PADV | ≤ 0.2
TFQW | ≤ 0.2
VPTM | ≤ 0.2
LSCN | ≤ 0.2
AMAR | ≤ 0.2
PSWN | ≤ 0.2
CRNF | ≤ 0.2
SRKI | ≤ 0.2
GKST | ≤ 0.2
KTID | ≤ 0.2
CMRS | ≤ 0.2
TEAV | ≤ 0.2
YSPR | ≤ 0.2

Variant | one-hybrid fitness for binding NBS DNA
GWAS | ≤ 0.2
WKNA | ≤ 0.2
LTKM | ≤ 0.2
PERN | ≤ 0.2
TMAL | ≤ 0.2
TSCW | ≤ 0.2
PIPQ | ≤ 0.2
VAGC | ≤ 0.2
GWSR | ≤ 0.2
GIGG | ≤ 0.2
LVTM | ≤ 0.2
CLSQ | ≤ 0.2
MMTL | ≤ 0.2
QIIM | ≤ 0.2
WHRF | ≤ 0.2
IPLM | ≤ 0.2
PANF | ≤ 0.2
FASM | ≤ 0.2
WPLY | ≤ 0.2
LPWC | ≤ 0.2
TGKD | ≤ 0.2
LCSF | ≤ 0.2
VDNS | ≤ 0.2
CVLL | ≤ 0.2

Variant | one-hybrid fitness for binding NBS DNA
DTYC | ≤ 0.2
TYKF | ≤ 0.2
VKIV | ≤ 0.2
LTMV | ≤ 0.2
LLKC | ≤ 0.2
IGTR | ≤ 0.2
NNFM | ≤ 0.2
RQNG | ≤ 0.2
EQDC | ≤ 0.2
CKIP | ≤ 0.2
DRKN | ≤ 0.2
TIRM | ≤ 0.2
NYNL | ≤ 0.2
HHGT | ≤ 0.2
TCRA | ≤ 0.2
SCLE | ≤ 0.2
STFV | ≤ 0.2
LSHR | ≤ 0.2
TIFT | ≤ 0.2
CGSG | ≤ 0.2
RETS | ≤ 0.2
RGNV | ≤ 0.2
KNNF | ≤ 0.2
YQFY | ≤ 0.2

Variant | one-hybrid fitness for binding NBS DNA
YPQR | ≤ 0.2
KCKC | ≤ 0.2
YSQC | ≤ 0.2
RWHG | ≤ 0.2
FGFR | ≤ 0.2
RYQE | ≤ 0.2
LPSQ | ≤ 0.2
RIPC | ≤ 0.2
QQLP | ≤ 0.2
IALW | ≤ 0.2
RAGT | 0.443
KTWY | ≤ 0.2
NKCG | ≤ 0.2
RTHK | ≤ 0.2
SCAW | ≤ 0.2
QYAG | ≤ 0.2
RGML | ≤ 0.2
DNST | ≤ 0.2
GLRY | ≤ 0.2
ISED | ≤ 0.2
EGDR | ≤ 0.2
AMEM | ≤ 0.2
VSTH | ≤ 0.2
GING | ≤ 0.2

Variant | one-hybrid fitness for binding NBS DNA
TGVL | ≤ 0.2
YQHS | ≤ 0.2
QNGT | ≤ 0.2
NPQG | ≤ 0.2
DAKT | ≤ 0.2
FRFK | ≤ 0.2
ETHP | ≤ 0.2
ANRF | ≤ 0.2
WHVS | ≤ 0.2
LYQH | ≤ 0.2
PEIS | ≤ 0.2
APYE | ≤ 0.2
TIMM | ≤ 0.2
GVSG | ≤ 0.2
QPLD | ≤ 0.2
NCST | ≤ 0.2
TNAF | ≤ 0.2
YTMC | ≤ 0.2
LFTC | ≤ 0.2
LYAR | ≤ 0.2
SHFR | ≤ 0.2
MYPE | ≤ 0.2
MWRS | ≤ 0.2
RQSV | ≤ 0.2

Variant | one-hybrid fitness for binding NBS DNA
PGTI | ≤ 0.2
CYVT | ≤ 0.2
CHAS | ≤ 0.2
QYWM | ≤ 0.2
QEAT | ≤ 0.2
EICS | ≤ 0.2
EHEV | ≤ 0.2
RFGA | ≤ 0.2
ETGG | ≤ 0.2
DLEM | ≤ 0.2
DCCT | ≤ 0.2
VSHR | ≤ 0.2
VNWR | ≤ 0.2
PNTS | ≤ 0.2
RMMQ | ≤ 0.2
DSAL | ≤ 0.2
DIKG | ≤ 0.2
CLRG | ≤ 0.2
DLPV | ≤ 0.2
HIAW | ≤ 0.2
LAKS | ≤ 0.2
YAAV | ≤ 0.2
PTTS | ≤ 0.2
RGLS | ≤ 0.2

Variant | one-hybrid fitness for binding NBS DNA
LPTW | ≤ 0.2
PLAI | ≤ 0.2
PLIH | ≤ 0.2
QIYC | ≤ 0.2
VRPM | ≤ 0.2
SAAA | ≤ 0.2
FIFF | ≤ 0.2
VRMS | ≤ 0.2
RQVH | ≤ 0.2
CSAD | ≤ 0.2
PFSK | ≤ 0.2
RYCC | ≤ 0.2
NRLV | ≤ 0.2
VMRT | ≤ 0.2
LQSA | ≤ 0.2
MTNI | ≤ 0.2
ALSR | ≤ 0.2
YKHK | ≤ 0.2
